# In the supplement of paper PMC4466236:
# Over roughly 33,000 sequences, “E-score (dimensionless, -0.5 to 0.5)” has its median near -0.058; the highest 2% begin near 0.35. This is one part of the list.
# Tested on: MvaT
# Experiment: PBM 8-mer E-score (mean of HK and ME arrays) (E-score (dimensionless, -0.5 to 0.5)); higher = stronger relative binding preference; most listed sequences are background and not binding sites
# How it was run: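 Full-length P. aeruginosa MvaT carrying an N-terminal glutathione S-transferase tag was tested by protein binding microarray following a previously described protocol. Two universal double-stranded 60-mer arrays, ME and HK, were used, each with a constant 25-mer primer region and a variable 35-mer region covering all 8-mers. The rank-based E-score is the mean of the two arrays, parsed with a custom script. Its range runs from -0.5 to 0.5 for each 8-mer.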
row,Sequence,PBM 8-mer E-score
1,TCGTGGCA,-0.161
2,GCGCTTAA,0.147
3,CGACTTCC,-0.0647
4,CGGCAGCA,-0.175
5,AGACAAGG,-0.157
6,GTCCGCAA,0.0459
7,ATGGCAGG,-0.195
8,GGAGTCAC,-0.129
9,GCCTTTCA,-0.0671
10,CGCAGCTC,-0.287
11,ATGGGCGA,-0.148
12,ACTATGAA,0.119
13,ATTTCACG,0.0183
14,AGACTAAG,0.111
15,ATTGAATC,0.122
16,AGAGAAGG,-0.122
17,CGGAACCC,-0.197
18,GAGCTTGA,-0.201
19,ACCTGCTA,-0.142
20,GCCTGGAC,-0.223
21,AAGGTTTC,-0.149
22,ACTTATCC,0.181
23,AGTTGAGG,-0.0417
24,ACTAACTG,0.191
25,GACATACA,0.0197

row,Sequence,PBM 8-mer E-score
1,ACCCTCGG,-0.132
2,CATACTGA,0.0023
3,CATTTGTC,0.0407
4,GTAGAGGA,-0.107
5,GCCAGAGA,-0.135
6,CATGAGGG,-0.214
7,AAGGAGGA,-0.135
8,GAAGGTTA,-0.0694
9,GCCACTGA,-0.0453
10,CCCTTGAG,-0.115
11,ATAACTTC,0.351
12,AACGTCTA,-0.174
13,CCATAACG,0.0305
14,GGAAAATA,0.192
15,GAGCCTGA,-0.248
16,AAATACCT,0.193
17,CCTATTGC,-0.203
18,CGACCTGA,-0.231
19,GATCCCAA,-0.0954
20,AAATTCTC,0.0718
21,GCATGGGA,-0.0461
22,ACACTGGA,-0.128
23,GCTGTATA,0.2
24,AATCAGCG,-0.0637
25,AACGCCGT,-0.147

row,Sequence,PBM 8-mer E-score
1,CTTGGTGC,-0.111
2,CCTGCACA,-0.0695
3,ATGCATAA,0.296
4,CCCGGTAC,-0.251
5,ATGCATCC,-0.085
6,GAATCCTA,-0.0917
7,AACGGCAA,0.144
8,GCGACCAA,-0.0335
9,CGCGTAAA,0.213
10,TCTCTTCA,-0.0241
11,AAAGCCTA,0.125
12,CTCCCCAG,-0.206
13,ATGTGTTA,0.258
14,TAGGTGAA,0.0588
15,CTAGGGCA,-0.187
16,AGTCTCGC,-0.0341
17,ACCCTAAG,-0.139
18,CATTCATA,0.173
19,CTCAGGGC,-0.28
20,CTGCCTCC,-0.303
21,TTAACCAA,0.236
22,GAAACGCA,-0.105
23,CCTCTCAC,-0.201
24,CACAGAAA,-0.0504
25,CCCAAGTC,-0.149

row,Sequence,PBM 8-mer E-score
1,GACTATGA,-0.0673
2,CGGCATAA,0.202
3,CGTTGTGA,-0.0557
4,GTAGGAAC,-0.0612
5,GAATACCA,0.00319
6,AAAGGGGC,-0.289
7,AAGCCGGG,-0.164
8,TCCCTACA,-0.156
9,ACATATCA,0.213
10,CTGGAAAG,-0.0706
11,CGAGTGGC,-0.232
12,CTATGGAA,0.0218
13,CTTCCGCA,-0.136
14,CTTGGTTC,-0.134
15,ACGTCGTC,-0.137
16,CACAATAC,0.052
17,AGCCAAAA,-0.0832
18,AGTTCGTA,0.179
19,TGCGTCCA,-0.219
20,ACCTTGGC,-0.222
21,CAAACATG,0.196
22,CCTCGGAA,-0.0536
23,CAAGCGAC,-0.157
24,ACTCATAG,-0.135
25,GCTTAGCA,-0.165

row,Sequence,PBM 8-mer E-score
1,CCTCGTGC,-0.29
2,AACGATAG,-0.0547
3,ATACGTTA,0.296
4,CTAGCCCC,-0.21
5,ATCAGAGC,-0.171
6,GCACTAGA,-0.138
7,ACATGGAT,0.102
8,AACTGCGT,-0.0481
9,CATCTTTA,0.24
10,AAAATTAT,0.355
11,ATAGTCCC,-0.0824
12,ATCCGGAA,-0.0227
13,AACGACAC,0.0139
14,ACCCTCTA,-0.242
15,GATGAACA,0.00916
16,CTTGTTTC,0.0315
17,ATCTTCAT,0.123
18,GTAGTCCA,-0.0481
19,CTCCTCAC,-0.208
20,GCTATCGA,-0.0886
21,AAAGGGTC,-0.125
22,AGGGCACG,-0.282
23,GCGCGGCA,-0.219
24,TACCGTAA,0.16
25,AGTCCAAT,0.0865

row,Sequence,PBM 8-mer E-score
1,TCAACACA,0.011
2,CTCAATAA,0.307
3,CATAGATG,0.0192
4,GGAGAGCA,-0.258
5,GAGGGCGC,-0.389
6,GAGTTAAA,0.25
7,GGAAGGAC,-0.12
8,GACGCAGA,-0.227
9,AAATTGCT,0.214
10,CGCAGCAA,-0.156
11,CCTGGGTC,-0.264
12,AGTTGATG,-0.0188
13,AAGTACAG,0.141
14,ATCTGAAG,0.00835
15,AATCGTTC,-0.119
16,CGTCCAAG,-0.161
17,ATCTTATC,0.114
18,TGTCTAAA,0.137
19,ACCCACAC,0.187
20,GGGCGCTA,-0.265
21,ATCCCAAG,-0.0779
22,ATTTGTTA,0.325
23,GAGATTAA,0.232
24,ACGGGCAG,-0.123
25,CCACAGTA,-0.0252

row,Sequence,PBM 8-mer E-score
1,CATTAATG,0.34
2,AGAGGCTC,-0.288
3,AATATGCC,0.17
4,CTTGGTAC,-0.225
5,CTTTTCAC,-0.00227
6,CTGATTAA,0.278
7,GGGACTAC,-0.0607
8,CAATGCAC,-0.00507
9,CGAGCGGA,-0.227
10,CAGTAATA,0.273
11,TGGTAACA,-0.0359
12,GAAAACGA,-0.0123
13,CTCAGAGC,-0.118
14,AAAAAAAT,0.227
15,GAGAAAAC,0.00227
16,AAATTACC,0.212
17,AGAGTAGC,-0.15
18,TATCAGAA,0.146
19,TCCGACCA,-0.131
20,CTGCAGTC,-0.0989
21,AATATAGT,0.398
22,ATATGAAA,0.279
23,ATAATTGG,0.308
24,GTATTATA,0.437
25,ATAACCGG,0.0956

row,Sequence,PBM 8-mer E-score
1,AGACTATG,0.0431
2,ATGAGTTC,-0.0864
3,CATGGTCG,-0.206
4,GGCAACCC,-0.163
5,AGGCGGCA,-0.158
6,CCTAAGAC,-0.227
7,AACTCGGG,0.0231
8,AGATGTCG,-0.195
9,ACCCGCGA,-0.277
10,AGTTGTCG,0.125
11,GAAATGGA,-0.0483
12,ACTATGCT,0.0329
13,CAACACTA,0.11
14,AACACATT,0.225
15,CGTGGAGC,-0.123
16,CAGGAATG,-0.102
17,ATCCGTAA,-0.054
18,ACAAGGCG,-0.173
19,TCGCGCAA,0.025
20,TTAAATAA,0.445
21,TGAGTAAA,0.107
22,GGATAGGA,0.0316
23,ACTTGGAT,0.048
24,GAGCAGAA,-0.135
25,CGCGCCTA,-0.103

row,Sequence,PBM 8-mer E-score
1,ATCTTGGG,-0.157
2,AACCTGGC,-0.0498
3,CGAGATGA,-0.215
4,CCCCTGGC,-0.322
5,CAGTGAAG,-0.205
6,ACTAATTC,0.227
7,CAAGGTGC,-0.281
8,GTAGAGTA,0.0731
9,GGTCACAA,-0.0731
10,GACTAATC,-0.0756
11,GTCCCAAC,0.0304
12,ATCCATAA,0.159
13,AAAGGCCC,-0.253
14,AGCATTCA,0.0958
15,GATGCATC,0.0123
16,ACATCAGA,0.00656
17,AGTGATTC,0.0437
18,ACGGTAAT,0.18
19,AACAATAA,0.422
20,ATCACCAT,-0.0433
21,CAACGGGG,-0.0186
22,CCGTCAAG,-0.147
23,GTATCGAC,-0.0329
24,ATTCACCG,0.0854
25,CATTTAAC,0.298

row,Sequence,PBM 8-mer E-score
1,CTCGCCAC,-0.144
2,CCCAAGGA,-0.238
3,GCAACACA,-0.0406
4,AACCATGT,0.0619
5,ACCGAATG,-0.0603
6,ACCTCTGA,-0.23
7,GAGAGGGC,-0.304
8,AAACGCCG,-0.198
9,AGTCTAAC,0.049
10,GTTGGTCA,0.0411
11,AACTAGCA,0.13
12,ACATCCTG,-0.12
13,AGTAATCG,-0.0403
14,AAACATCT,0.177
15,GGTATCCA,-0.0532
16,GCGTTCCC,-0.186
17,AGACTGCT,-0.108
18,AGATCTGC,-0.0672
19,ACTTGATC,0.0758
20,GGACGTTA,-0.103
21,AGCATAAG,-0.186
22,GTCCTACA,-0.0701
23,AATCTGTA,0.109
24,ATCACATC,-0.0184
25,AACGGAGG,-0.22

row,Sequence,PBM 8-mer E-score
1,AGACGTGC,-0.122
2,GCGTAAGA,-0.112
3,AGCCTGTA,-0.00993
4,AACTCTGT,0.139
5,CGCCTACC,-0.181
6,AAAATCCA,-0.00292
7,GACTACCC,-0.189
8,AATAGGCG,-0.082
9,GCGAACTA,0.152
10,ACCATCAC,-0.0655
11,GGGTACAA,-0.0488
12,CGGCAAAG,-0.141
13,ACGTTTCA,-0.00943
14,CGACCGGC,-0.255
15,AGCATTGC,-0.0493
16,GAACCCTC,-0.275
17,GGTTCCGA,-0.282
18,CATAGTAC,0.0474
19,GTACCCAC,-0.27
20,CTTGTAGA,-0.0623
21,CGAACTAG,0.0339
22,CAGTTTCA,0.0616
23,CGTCTATC,-0.0975
24,GTTTGCTA,0.1
25,CCACTATC,0.0825

row,Sequence,PBM 8-mer E-score
1,GTAACATA,0.329
2,CTTCCGCC,-0.27
3,ATCATTGA,0.12
4,ATGAGAGC,-0.239
5,GTATGACA,0.0692
6,GAACTTAA,0.263
7,AGGCACGC,-0.347
8,TTAACGAA,0.174
9,AGAACGTG,0.000115
10,AATAACAT,0.32
11,CTTATTGC,0.178
12,AAGTATGT,0.31
13,CAGGCGCA,-0.293
14,AACTTCGA,0.203
15,CTCAGATA,-0.0102
16,AATTTACT,0.226
17,TAGGGTCA,-0.0417
18,ACATCGAC,-0.138
19,AGCAGTGC,-0.302
20,TTGCGCAA,0.248
21,TAGGCGGA,-0.189
22,CGGTGGGC,-0.161
23,CAACCTTG,-0.16
24,CGCATTTA,0.156
25,CCCAGAGG,-0.294

row,Sequence,PBM 8-mer E-score
1,ATCCCACC,0.0538
2,CCCGGACG,-0.23
3,ATCACCAA,-0.0296
4,AGACCGCC,-0.212
5,ATATCCCG,0.0682
6,AGGCGCAA,-0.173
7,TTCCGCAA,0.134
8,ATCCGAAG,-0.135
9,CCACCGTA,-0.13
10,GAAGGCTC,-0.353
11,CTGACGCA,-0.123
12,AGGCTCTC,-0.227
13,CCCTAGTC,-0.182
14,AACTTATA,0.415
15,ATCAGCGG,-0.214
16,CAGCACGG,-0.189
17,ACGAGTAG,-0.139
18,CACATGAA,0.0276
19,ATAAGAAC,0.192
20,TCTTCGAA,0.00918
21,CTAAGAAC,0.0927
22,ATACCAAT,0.166
23,AATTTGCC,0.167
24,CTTCGACC,-0.145
25,TATTCTCA,0.205

row,Sequence,PBM 8-mer E-score
1,AAATACGG,0.146
2,CAATGCCG,0.0384
3,GATTAGCC,-0.0789
4,ACCATTAA,0.263
5,ATTCCTTA,0.123
6,AACCCAGA,0.0439
7,AACTAATG,0.312
8,CCTGAGCG,-0.27
9,TACGTCAA,0.13
10,CAGTACTC,0.08
11,CACACATA,0.176
12,AACGGTGT,-0.0275
13,GCAGTGAA,-0.0979
14,CTGTGCAA,-0.114
15,CCGTGACC,-0.274
16,GGACTACA,-0.0133
17,GCTGATAA,0.184
18,CGTTCGAA,-0.108
19,AATGCAGA,-0.0313
